Laboratory results reported in article PMC4336329 (PLoS ONE, 2015).
Hit rate of the full screen: of about 310,000 compounds, about 14,000 (4.5%) showed an effect of 50% or more. Effects have a minus sign here. This is one part of the list.

What follows are molecules tested against human ether-à-go-go-related gene (hERG) potassium channel (human, UniProt Q12809) (assay: primary screen, population patch clamp on CHO cells stably expressing hERG).
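Also: peak tail current of the secondary pulse compared with the same well before compound.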

human ether-à-go-go-related gene (hERG) potassium channel, sequence (Q12809 whole entry, looked up): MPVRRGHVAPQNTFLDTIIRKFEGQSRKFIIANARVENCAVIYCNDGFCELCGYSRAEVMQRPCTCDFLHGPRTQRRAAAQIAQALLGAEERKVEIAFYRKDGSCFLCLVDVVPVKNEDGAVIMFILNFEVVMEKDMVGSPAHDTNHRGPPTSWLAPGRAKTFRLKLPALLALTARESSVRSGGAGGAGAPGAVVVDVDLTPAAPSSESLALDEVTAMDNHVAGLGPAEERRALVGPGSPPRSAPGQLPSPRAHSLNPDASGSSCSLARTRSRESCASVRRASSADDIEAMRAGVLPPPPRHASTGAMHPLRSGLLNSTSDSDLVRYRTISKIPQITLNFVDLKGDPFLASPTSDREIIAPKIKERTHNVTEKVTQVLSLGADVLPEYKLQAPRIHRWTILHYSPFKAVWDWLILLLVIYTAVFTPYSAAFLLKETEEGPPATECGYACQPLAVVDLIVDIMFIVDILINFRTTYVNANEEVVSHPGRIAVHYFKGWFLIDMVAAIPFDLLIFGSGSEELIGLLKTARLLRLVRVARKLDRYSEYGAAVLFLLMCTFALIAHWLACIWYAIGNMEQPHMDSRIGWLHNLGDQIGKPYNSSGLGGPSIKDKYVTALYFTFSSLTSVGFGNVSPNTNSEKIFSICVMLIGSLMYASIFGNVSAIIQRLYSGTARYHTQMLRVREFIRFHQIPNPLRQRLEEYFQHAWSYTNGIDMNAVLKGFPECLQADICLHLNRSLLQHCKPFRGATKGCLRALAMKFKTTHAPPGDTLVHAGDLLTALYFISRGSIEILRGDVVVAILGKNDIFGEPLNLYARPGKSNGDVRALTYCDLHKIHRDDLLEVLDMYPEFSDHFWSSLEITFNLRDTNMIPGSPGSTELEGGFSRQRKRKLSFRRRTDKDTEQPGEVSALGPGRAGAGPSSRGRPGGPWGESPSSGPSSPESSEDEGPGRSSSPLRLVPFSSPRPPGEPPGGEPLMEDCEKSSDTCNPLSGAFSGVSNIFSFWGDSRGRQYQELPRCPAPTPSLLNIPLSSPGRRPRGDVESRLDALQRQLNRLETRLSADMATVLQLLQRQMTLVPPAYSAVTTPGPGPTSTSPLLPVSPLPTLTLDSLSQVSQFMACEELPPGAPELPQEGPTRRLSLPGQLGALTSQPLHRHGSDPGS

Row | Structure (SMILES) | hERG current change (%, negative = inhibition) at 10uM
1 | CC(C)C(=O)NC(=S)Nc1ccc(S(=O)(=O)N2CCN(C)CC2)cc1 | -6.57%
2 | Cc1ccc(NP(=O)(Oc2ccccc2F)Oc2ccccc2F)cc1 | -2.48%
3 | O=[N+]([O-])c1ccc(N2CCN(C(=S)NC3CCCCC3)CC2)cc1 | -53%
4 | Cc1ccc2c(C(=O)CN3CCC4(CC3)OCCO4)c(C)[nH]c2c1 | -3.88%
5 | S=c1[nH]nc(-c2cccc(Cl)c2)n1CCN1CCCCC1 | -16.2%
6 | CCCc1nc(SCC(=O)N2CCCc3ccccc32)c2c(=O)n(C)c(=O)n(C)c2n1 | -25.1%
7 | Fc1ccc(CNc2nc3ccccc3n3nnnc23)cc1 | 6.03%
8 | Cc1ccnc(NS(=O)(=O)c2ccc(NC(=O)c3ccccc3F)cc2)n1 | 19.2%
9 | COc1ccccc1-c1cc(C(=O)Nc2cccnc2)no1 | -15.9%
10 | COc1ccc(-n2c(=O)c3ccccc3n(CC(=O)OCc3ccccc3)c2=O)cc1OC | -1.5%
11 | CNC(=S)Nc1cccc(-c2cnc3ccccc3n2)c1 | -35.2%
12 | O=C(N/N=C/c1ccc(OCC2COCCO2)cc1)c1ccc(Br)cc1 (stereo not drawn) | 7.8%
13 | Cc1cccc(NC(=S)NC(=O)/C=C/c2ccccc2)n1 | 12.5%
14 | CCOC(=O)Nc1ccc2c(CN3CCC(C(=O)OC)CC3)cc(=O)oc2c1 | 17.4%
15 | S=C(NCCN1CCOCC1)Nc1ccc(Nc2ccccc2)cc1 | -11.7%
16 | CC(C)[C@H](NC(=O)N1CC(=O)Nc2ccccc21)C(=O)N[C@@H](Cc1ccccc1)C(=O)O | 5.77%
17 | COc1ccc(CCNC(=O)COc2ccc(S(=O)(=O)NC(C)C)cc2)cc1OC | 6.8%
18 | COc1ccc(NC(=O)Cn2nnc(-c3ccccc3F)n2)cc1 | 8.49%
19 | C(=N\Nc1ccccn1)/c1ccc2c(c1)OCCO2 | -6.12%
20 | Fc1cccc(Cl)c1CSc1ccc(-c2ccco2)nn1 | 1.19%
21 | O=C(CSc1nc2ccccc2s1)Nc1ncccn1 | 13.4%
22 | COC(=O)CN1C(=O)[C@H]2[C@@H](c3ccc(C)o3)N3C(=O)CN(CCO)C(=O)[C@@]3(Cc3ccccc3)[C@H]2C1=O | 4.43%
23 | Clc1cccc(CN2CCCCC2c2cccnc2)c1 (stereo not drawn) | -6.42%
24 | N#CC1(NC(=O)Cn2cc(C(F)(F)F)cc(Cl)c2=O)CCCCC1 | 13.3%
